# In all, about 340,000 compounds went through this assay and about 12,000 (3.5%) were called active. Inconclusive results, whose numbers are uncertain, are shown with a selection of clear calls. Calls follow the shape of the dose curve; as a rule, active = well fitted inhibition curve with a large enough effect; inconclusive = small, poorly fitted or top-dose-only effect, or another doubt; inactive = no such curve, though single readings can be large or run the other way. No potency is given beside an inconclusive call; the fits are too rough.
# Assay: qHTS Assay for Inhibitors of Hepatitis C Virus (HCV)
# Settings: Huh7.5.1 HCVcc-Cre (HCVcc is cell-culture hepatitis C virus) infection, luciferase reporter, 44 h; activity change, negative = inhibition: at 41.8 µM (top of the series)
# Procedure, shortened: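 Cells (1,000/well) were plated 4 h before compound, then infected with HCVcc-Cre virus (~0.5 moi). After 44 h further culture, infection was read as luciferase luminescence following a 15 min substrate incubation at room temperature.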
# % is scaled to controls: 0 for no effect and ±100 for the full control effect; potency is read from the fitted curve at half-maximal effect; tags tell the direction and shape of the fitted curve.
SMILES,Potency,"activity change, negative = inhibition"
CC1CCN(c2ccccc2NC(=S)NC(=O)c2ccc(-c3cccc([N+](=O)[O-])c3)o2)CC1,"inconclusive [inhibitor, partial curve]",–
NCCCCCCNS(=O)(=O)c1cccc2c(Cl)cccc12,"inconclusive [inhibitor, single point]",–
N#Cc1ncc(-c2ccc3c(c2)OCCOCCOCCOCCOCCO3)nc1C#N,"inconclusive [inhibitor, partial curve]",–
Cc1ccc(S(=O)(=O)Cc2ccc(C(=O)N3CCN(c4cc(C)ccc4C)CC3)o2)cc1,"inconclusive [inhibitor, single point]",–
CNC(=O)Oc1cccc(-c2cn3cc(Cl)ccc3n2)c1,"inconclusive [inhibitor, partial curve, poor fit]",–
CNC(=S)N/N=C(\C)c1ccc(C(C)(C)C)cc1,"inconclusive [inhibitor, full curve]",–
COc1ccc(Cl)c(NC(=O)C/C(C)=N/NC(=O)CCc2ccccc2)c1,"inconclusive [inhibitor, partial curve]",–
CN1CC=C2C(C#N)=C(N)C(C#N)(C#N)C(Cc3ccccc3)C2C1 (stereo not drawn),"inconclusive [inhibitor, single point]",–
CCn1nc(C(=O)NNC(=O)c2ccc(OC(F)F)cc2)c2ccccc2c1=O,"inconclusive [inhibitor, single point]",–
CCSc1oc(-c2ccccc2)nc1S(=O)(=O)c1ccccc1,"inconclusive [inhibitor, partial curve]",–
CC(=O)Oc1ccc(/C(C)=N\N2CCN(Cc3ccc(Cl)cc3)CC2)cc1,"inconclusive [inhibitor, single point]",–
O=C(NNC(=O)c1cccc2ccccc12)c1ccc(Cl)cc1,"inconclusive [inhibitor, partial curve]",–
O=C(c1ccc2c(c1)OCCO2)N1CCN(c2ccccn2)CC1,inactive,–
Cn1cc(C(=O)c2ccccc2)cc1-c1nc2ccccc2n1C,"inconclusive [inhibitor, partial curve, poor fit]",–
Nc1cc(Cl)ccc1N1CCCC1,inactive,–
CC(=O)c1ccc(-c2ccc([C@H]3[C@H]4C=CC[C@@H](C)[C@@H]4C(=O)N3Cc3ccccc3)c(F)c2)cc1,–,inactive: -23.3% [at 8.37 µM]
Cc1nc2ccc(NS(=O)(=O)c3ccccc3F)cc2s1,"inconclusive [inhibitor, single point]",–
Cc1ccc(NC(=S)/N=C(\N)Nc2nc(C)c3cc(C)c(C)cc3n2)cc1C,"inconclusive [inhibitor, partial curve]",–
CC1(C)Cc2nc3sc4c(N(CCO)CCO)ncnc4c3cc2CO1,inactive,–
Cc1sc2nc(C(C)Nc3ccccc3N3CCOCC3)[nH]c(=O)c2c1C (stereo not drawn),"inconclusive [inhibitor, partial curve]",–
Cc1ccc(Cc2c(C)nc3nc(SCC(=O)NCCCN4CCCCC4)nn3c2C)cc1,"inconclusive [inhibitor, partial curve]",–
CC1(C)Cc2c(c(N3CCOCC3)nc3sc4c(NN)ncnc4c23)CS1,"inconclusive [inhibitor, single point]",–
COc1ccc(C(NC(C)=O)c2cc(Cl)c3cccnc3c2O)cc1OC (stereo not drawn),active: 2 µM,–

SMILES,Potency,"activity change, negative = inhibition"
CCN(CC)Cc1c[nH]c2ccccc12,inactive,–
N#Cc1nc(Cc2cccc3ccccc23)oc1NCCCN1CCOCC1,"inconclusive [inhibitor, single point]",–
CCCCOc1ccc(-c2nc(-c3cccnc3)no2)cc1,inactive,–
COc1ccc(CC(=O)Nc2nc(-c3ccc(F)c(F)c3)cs2)cc1OC,active: 4.47 µM,–
CC(C)c1ccc(C(O)P(=O)(OC2CCCCC2)OC2CCCCC2)cc1 (stereo not drawn),"inconclusive [inhibitor, single point]",–
O=C(O)c1cc(N/N=C/c2ccc(N3CCOCC3)s2)ccc1Cl,inactive,–
NNC(=O)c1sc2cc(C(F)(F)F)cnc2c1-c1ccccn1,inactive,–
COc1cc(/C=C/c2nnc3c4ccccc4ncn23)cc(OC)c1OC,active: 2.24 µM,–
CCOC(=O)N1CCC(N2CCN(c3cc(C)ccc3C)CC2)CC1,"inconclusive [inhibitor, single point]",–
Cc1nc2ccccn2c1-c1csc(Nc2ccc(C(=O)O)cc2)n1,inactive,–
CCN(C(=O)CSc1nc2scc(-c3ccccc3)c2c(=O)n1C)C1CCS(=O)(=O)C1 (stereo not drawn),"inconclusive [inhibitor, partial curve]",–
COc1ccc(C(=O)/C=C/N(C)C)cc1,inactive,–
O=C(c1cc(COc2ccc3ncccc3c2)on1)N1CCC[C@H]1CO,"inconclusive [inhibitor, full curve]",–
N#Cc1ccc(OCC(=O)N2CCN(S(=O)(=O)c3ccc(Cl)s3)CC2)cc1,"inconclusive [inhibitor, single point]",–
COc1ccc(C(C)=O)cc1COc1ccc(F)cc1,"inconclusive [inhibitor, single point]",–
CC(C)C[C@H](NC(=O)c1nc[nH]c1C(=O)N[C@@H](CCCCNC(=O)OC(C)(C)C)C(=O)OC(C)(C)C)C(=O)OCc1ccccc1,"inconclusive [inhibitor, single point]",–
COC(=O)c1[nH]c2cc(C)ccc2c1NC(=O)CN1CCN(C(=O)c2ccco2)CC1,"inconclusive [inhibitor, partial curve]",–
CC(C)(C)Nc1nc(OCC#N)nc(N2CCCCC2)n1,"inconclusive [inhibitor, partial curve]",–
CCN(CC)S(=O)(=O)c1ccc2c(c1)nc(SCc1nc3ccsc3c(=O)[nH]1)n2CC,"inconclusive [inhibitor, full curve, poor fit]",–
NC(=O)c1cccc(-c2cc(Nc3ccc(OC(F)(F)F)cc3)ncn2)c1,"inconclusive [inhibitor, partial curve, poor fit]",–
CCn1c(SCC(=O)c2cc(C)n(-c3ccc(C(=O)OC)cc3)c2C)nnc1-c1cccnc1,"inconclusive [inhibitor, single point]",–
CCOC(=O)C1CCN(c2cc3c(cc2NC(=O)c2ccccc2OCC)n(C)c(=O)n3C)CC1,"inconclusive [inhibitor, single point]",–
Cc1noc(C)c1COC(=O)c1cnc(Cl)c(Cl)c1,"inconclusive [inhibitor, single point]",–

SMILES,Potency,"activity change, negative = inhibition"
Oc1cccc(/C=N/Nc2cc(N3CCOCC3)nc(N3CCOCC3)n2)c1,"inconclusive [inhibitor, full curve]",–
CCOC(=O)/C=c1\s/c(=C\c2c(OCC)ccc3ccccc23)c(=O)n1CC(=O)NCC1CCCO1 (stereo not drawn),active: 3.55 µM,–
COc1ccc(/C=C/c2c([N+](=O)[O-])c(=O)n(C)c(=O)n2C)cc1,inactive,–
CC(OC(=O)C1CCC1)C(=O)Nc1cc(Cl)cc(Cl)c1 (stereo not drawn),inactive,–
CC(=O)c1sc(-c2ccc(Cl)cc2)cc1N,"inconclusive [inhibitor, single point]",–
Oc1ccccc1C1Nc2cccc3cccc(c23)N1,inactive,–
Cc1cc(OCc2cc(C(=O)N(C)CCCN3CCOCC3)no2)cc(C)c1Cl,"inconclusive [inhibitor, single point]",–
Cc1csc(=O)n1CC(=O)OCC(=O)NNC(=O)c1ccc([N+](=O)[O-])cc1,inactive,–
COC(=O)c1ccc(/C=C/C(=O)OCC(=O)Nc2sccc2C(N)=O)cc1,"inconclusive [inhibitor, single point]",–
CCC(C(=O)NCCc1c[nH]c2ccc(C)cc12)c1ccccc1 (stereo not drawn),"inconclusive [inhibitor, partial curve, poor fit]",–
COCCN(C(=O)CSc1n[nH]c(-c2ccccc2)n1)c1c(N)n(CC(C)C)c(=O)[nH]c1=O,inactive,–
COc1ccccc1NC(=O)C(=O)NCCC1CCCCN1S(=O)(=O)c1ccc(F)cc1 (stereo not drawn),"inconclusive [inhibitor, single point]",–
Cc1cc(OCC(=O)N2CCC(O)CC2)c2c(C)cc(=O)oc2c1,"inconclusive [inhibitor, full curve]",–
Cc1cccc(NC(=O)C(=O)NNC(=O)c2ccc(C(C)(C)C)cc2)c1,inactive,–
O=C(NCc1ccco1)c1cc(-c2ccccc2)nc2ccccc12,"inconclusive [inhibitor, single point]",–
c1ccc(CNc2ncnc3scc(-c4cccs4)c23)nc1,"inconclusive [inhibitor, single point]",–
CCC(=O)c1ccc(N2CCN(C(=O)c3cc([N+](=O)[O-])ccc3F)CC2)c(F)c1,"inconclusive [inhibitor, partial curve]",–
Cc1cccc(/C=C2/C(=O)/C(=C/c3ccccc3C)C3CCC2N3C)c1 (stereo not drawn),inactive,–
CCC1C/C(=C/c2ccco2)C(=O)/C(=C/c2ccco2)C1 (stereo not drawn),"inconclusive [inhibitor, partial curve]",–
Cc1cc(C)nc(SCC(=O)Nc2ncc(Cc3cccc(Cl)c3Cl)s2)n1,"inconclusive [inhibitor, full curve]",–
Cc1cc(Cl)ccc1OCC(=O)Nc1ccc2oc(=O)ccc2c1,"inconclusive [inhibitor, full curve]",–
CCCSc1nnc(CSc2ncccn2)n1C,inactive,–

# — PubChem BioAssay AID651820 (National Center for Advancing Translational Sciences (NCATS), 2012)
